Experimental findings from the RNAGym collection of RNA variant scans (doi:10.1073/pnas.2313332121) are described below.

B1: TPR 5TU (parent)
chain: GGAUCUUCUCGAUCUAACAAAAAAGACAAAUCUGCCACAAAGCUUGAGAGCAUCUUCGGAUGCAGAGGCGGCAGCCUUCGGUGGCGCGAUAGCGCCAACGUUCUCAACUAUGACACGCAAAACGCGUGCUCCGUUGAAUGGAGUUUAUCAUG

Variants at the floor of the assay are shown more often than the library holds them.

The variants in this data set derive from B1. The data set can be described thus: polymerase ribozyme fitness, log enrichment relative to wild type (log ratio); higher = more active; in vitro selection for triplet polymerase activity. An outline of the steps: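 Frozen incubation at −7 °C formed the core of a single, triplicate in vitro selection round applied to PCR-built, transcribed mutant libraries of each subunit of a heterodimeric triplet polymerase ribozyme. Extended constructs were gel-excised, captured with streptavidin beads and amplified by RT-PCR, and input and output libraries were Illumina-sequenced with a filter of ≥10 input reads and ≥1 read per output. Fitness is the logarithm of genotype enrichment relative to wild-type enrichment, with inverse-variance-weighted replicate averaging, and the logarithm is base 2.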
On to GGAUCGUCUCGAUUUAACAAAAAAGACAAAUCUGCCACAAAGCAUGCGAGCAUCUUCGGAUGCAGAGGAGGCAGCCUUCGGUGGCGCGAUAGCGCCAACGUUCUCAACUAUGACACGCAAAACGCGUGCUCCGUUGAAUGGAGUUUAUCAUG, for which the “polymerase ribozyme fitness (log ratio)” value is not above -4.2.

On to GGAUCGUCUCGAUUUAACAAAAAAGUCAAAUCUGCCACAAACCUUGAGAACAUCAUCGGUUGCAGAGGCGGCAGCCUUCGGUGGCGCGAUAGCACCAACGCUCUCAACUUUGACACGCAAAACGCGUGCUCCUUUGAAUGAAGUAUAUCAUG, for which the “polymerase ribozyme fitness (log ratio)” value was not above -4.2.

Regarding GGAUCGUCUCGAUGUCACAUUAAAGACAAAUCUGCCACAAAACUUGAGAGCAUCUUCGGAAGCGGAGGCGACAGCCUUCGGUGGUGUGAUAGCGCCAACGUUCUCAACUAUGACACGCAAAACGCGUGUUCCGUUAAAUGGAGUUUAUCAUG, the “polymerase ribozyme fitness (log ratio)” value was not above -4.2.

As to GGAUCGUCUUGAUCUAUCAGAAAAGACAAAUCUGCCAGAAAGCUUGAGAGCAUCUUCGGAUGCAGAGGCGGCAGCCUUCGGUGGUGCAACAGCGCCAACGUUCUCAACUAUGACACGCAAAACGCGUGCUCCGUUGAAUGGAGUUUAUCAUG, the “polymerase ribozyme fitness (log ratio)” value was not above -4.2.

As to GGAUCGUCUCGAUUUAACAAAAAAGACAAAUCUGCCACAAAACUUGAGAGCAUCUUCGGAUGCAGAGGCGGCAGCCUUCGGUGGCGUGAUAGCGCCAACGUUCGCAACUAUGACACGCAAAACGUGUGCUCCGUUGAAUGGAGUUUAUCAUG, the “polymerase ribozyme fitness (log ratio)” value is not above -4.2.

With GGAUCGUCUCGAUGUAACAAUAAAGACAAAUCUGCCACAAAGCUUGAGAGUAUCAUCGGAUGCAGAGGCGGCAGCCUGCGGUUGCGCGAUAGCGCCAACGUUCUCAACUAUGGCACGCAAAACGCGUGCUCCGUUGACUGGAGUUUAUCAUG, the “polymerase ribozyme fitness (log ratio)” value was not above -4.2.

For GGAUCGUUUCGAUCUAACAAAAUAGACAAAUCUGCCACAAAGCUUGAGAGCAUCUUCGGAUGCAGAGGCGGCAGCCUUCGGUGGCGCGAUAGCGCCAACGUUCUCAACUAUGACACGCAAAACGCGUGCUCCGUUGAAUGGAGUUUAUCAUG, the “polymerase ribozyme fitness (log ratio)” value is not above -4.2.

Turning to GGAUCGUCUCGAUCUAACAAAAAAGACAAAUCUGGCACAAAGCUUGAGAGCAUCUUCGGAUGCAGAGGCGGCAGCCUUCGGUGGCGCGAUAGCGACAAUGUACUCAACUACGACACGCAAAACGCGUGCUCCGUUGAAUGGAGUUUAUCAUG, the “polymerase ribozyme fitness (log ratio)” value was not above -4.2.

As for GGAUCGUAUCGAUGUAACAAAAAAGACAAAUCUGCCACAAAGCUUGAGAGCAUCUUCGGAUGCAGAGGCGGCAGCCUUCGGUGGCGCGAUAGAGCCAACGUUCUCAGCUAUGACACGCAAAACGCGUGCUCCGUUGAAUGGAGUUUAUCAUG, the “polymerase ribozyme fitness (log ratio)” value is not above -4.2.

Consider GGAUCGUGUCGAUUUAACAUAAAAGACAAAUCUGCCACAAAGCUUGAGAGCAUCUACGGAUGCAGAGGCGGCAGCCUUCGGUGGCGCGAUAUCGCCAACGUUCUCAACUAUGACACGCAAAACGCGUGCUCCGUUGCAUAGAGUUUAUCAUG, for which the “polymerase ribozyme fitness (log ratio)” value was not above -4.2.

Consider GGAUCGUCUCGAUUUAACAAAAAAGACAAAUCUGCCACAAAGCUUGAGAGAGUCUACGGUUGCAGAGGCGGCAGCCUUCGGUGGCGCGAUAGGGCCGACGUUCUCAACUAUGACACGCAAAACGCGUGCUCCGUUGAAUGGAGUAUAUCAUG, for which the “polymerase ribozyme fitness (log ratio)” value was not above -4.2.

Consider GGAUCGUAUCGAUCUAACAAAAAAGACAAAUCUGCCACAAAGCUUGAGAGCAUCUACGGAUGCAGAGGCGGCAGACUUCGGUGGCGCGAUAGCGUCAACGUUCUCAACUAUGACACGCUAAACGCGUGCUCCGUUGAAUGUAGUGUAUCAUG, for which the “polymerase ribozyme fitness (log ratio)” value is not above -4.2.

As for GGAUCGUCUCGAUCUAACAAAAAAGAGAAAUCUGCCACAAAGCUUGAGAGCAUCUUCGGAAGCAGAGGCGGCAGCCUUCGGUGGCGCUAUAGCGCCAACGUUCUCAACUAUGACACGCAAAACGCGUGCUCCGUUGAAUGGAGUUUAUCAUG, the “polymerase ribozyme fitness (log ratio)” value was not above -4.2.

Take GGAUCGUAUCGAUCUAACAAAAAAGACAAAUCUGCCACAAAGCUUGAGAGCAUUUUCGGAUGCACAGGCGGCAGCCUUCGGUGGAGCGAUAGCGUCAACGUUCUCAACUAUGAAACGCAAAACGCGUGCUCCGUUGAAUGUAGUUUAUCAUG: the “polymerase ribozyme fitness (log ratio)” value was not above -4.2.

Take GGAUCGUCUCGAUUUAACAAAAAAGUCAAAUCUGCCACAAACCUUGAGAACAUCAUCGGUUGCAGAGGCGGCAGCCUUCGGUGGCGCGAUAGCACCAACGCUCUCAACUUUGACACGCAAAACGCGUGCUCCUUUGAAUGGAGUUCAUCAUG: the “polymerase ribozyme fitness (log ratio)” value is not above -4.2.

With GGAUCGUCUCGAUCUAACAAAAAAGACAAAUAUGCGACAAAGCUUGAGAGCAUCUUCGGAUGCAGAGGCGGCAGACUUCGGCGUGGUGAUAGCGCCAACGUUCUCAACUAUGACACGCAAAACGCGUGCUCCGUUGAAUGGAGUUUAUCAUG, the “polymerase ribozyme fitness (log ratio)” value is not above -4.2.

Take GGAUCGUCUCGAUCUAACAAAAAAGAAAACUCUGCCACAAAGCUUGAGAGCAUCUUCGGAUGCAGAGGCGGCAACCUUCGGUGGCGCGAUAGCGGCAACGUUAUCAACUAUGACACGCAAAACGCGUGCUCGGUUGAAUGGAGUUUAUCAUG: the “polymerase ribozyme fitness (log ratio)” value is not above -4.2.

Take GGAUCGUGUCGAUCUAAUAAAAAAGACAAAUCUGCCACAAAGCUUGAGAGCAUUUUCGGAUGCAGAGGCGGCAGCCUUCGGUGGCGCGAUAGCGCCAACGUUCUCAACUAUGACACGCAAAACGCGUGCUUCGUUGAAUGGAGUUUAUCAUG: the “polymerase ribozyme fitness (log ratio)” value was -3.56.

Regarding GGAUCGUCUCGAUCUAAGAAAAAAGACAAAUCUGCUACAAAGCUUGAGAGCAUCUUCGGAUGCAGAGGCGGCAGCCUUCGGUGGCGCGAUAGCGCGAGCGUUCUCAACUAUGACACGCAAAACGCGUGCUCCGUUGAAUGGAGUUUAUCAUG, the “polymerase ribozyme fitness (log ratio)” value is -2.92.
